# In all, about 33,000 sequences were measured (“E-score (-0.5 to 0.5)”: median about -0.054, highest 2% from about 0.35 on). The list shows a part of the results.
# Molecular target: T1, Stb5 (UniProt P38699)
# T1 sequence: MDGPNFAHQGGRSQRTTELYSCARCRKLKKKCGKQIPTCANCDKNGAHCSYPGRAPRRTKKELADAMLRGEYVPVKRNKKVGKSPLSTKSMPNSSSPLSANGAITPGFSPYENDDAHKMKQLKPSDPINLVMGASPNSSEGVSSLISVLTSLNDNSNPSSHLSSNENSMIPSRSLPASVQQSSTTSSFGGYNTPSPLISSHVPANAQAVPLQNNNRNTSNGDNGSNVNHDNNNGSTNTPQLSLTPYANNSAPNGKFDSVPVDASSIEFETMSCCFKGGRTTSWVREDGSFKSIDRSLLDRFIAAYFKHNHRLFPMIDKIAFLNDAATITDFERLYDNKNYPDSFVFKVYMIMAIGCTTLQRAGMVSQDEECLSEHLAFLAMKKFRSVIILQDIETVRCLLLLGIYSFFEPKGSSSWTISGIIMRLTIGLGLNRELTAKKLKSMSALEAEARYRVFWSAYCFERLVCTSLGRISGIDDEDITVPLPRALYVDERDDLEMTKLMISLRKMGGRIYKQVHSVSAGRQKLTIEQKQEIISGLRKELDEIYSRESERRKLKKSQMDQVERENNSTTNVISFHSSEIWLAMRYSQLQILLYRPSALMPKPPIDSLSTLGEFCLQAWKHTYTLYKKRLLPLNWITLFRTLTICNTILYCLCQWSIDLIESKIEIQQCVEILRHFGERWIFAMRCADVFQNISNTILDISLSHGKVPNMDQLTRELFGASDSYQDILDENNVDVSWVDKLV
# Assay: PBM E-score (8-mer binding enrichment) (E-score (-0.5 to 0.5)); higher = stronger / more preferred TF binding; most listed sequences are background and not binding sites
# Conditions: protein concentration: 200 nM; construct: GST-full length
# How it was run: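 PURExpress in vitro transcription/translation supplied GST-tagged yeast transcription factors, either full-length or DNA-binding domain. Applied at about 100-200 nM to universal all-10-mer Agilent arrays double-stranded by primer extension, the bound protein was detected with fluorescent anti-GST. E-scores, modified Wilcoxon-Mann-Whitney statistics, were given by the Universal PBM Analysis Suite to ungapped eight-base words pooled with their reverse complements after masliner normalisation.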
row,Sequence,PBM E-score
1,ATAGACGC,0.123
2,CTGTGACA,-0.171
3,AACATCTG,0.0176
4,ATGGCTTA,-0.119
5,TTCACGAA,0.0251
6,ACCTATCG,0.208
7,ACAAGGGG,-0.206
8,TACTTTAA,-0.0822
9,AGGGCTTC,-0.317
10,GGCCGATA,0.266
11,ATCAAGAT,0.0647
12,GCCATTAC,0.0843
13,CAGGCCCC,-0.164
14,CATTCCGG,0.096
15,CCAATATA,-0.07
16,GCTATAGC,0.169
17,CAGCAATA,-0.0729
18,CCCCAGTC,-0.183
19,AAGCTAGG,-0.0484
20,GCCCTTTA,0.0391
21,GCTTGTTA,0.00248
22,AATAAGCT,0.0419
23,ACCACCAT,-0.138
24,GATTTAAA,0.00462
25,CGTCTTGC,0.0134

row,Sequence,PBM E-score
1,AGATGCCG,0.323
2,AAGTAGGC,-0.125
3,AGGGGATG,-0.119
4,ACGATGGA,-0.152
5,ATTGATGA,-0.158
6,CGGCCCAA,0.244
7,CGGAACCA,0.276
8,ACCGCGAG,0.288
9,TTAGTAAA,0.0358
10,GACTAGCC,-0.161
11,TCTATAAA,-0.0844
12,CCCATGCA,-0.227
13,ACAACTAT,-0.138
14,CATCTTAC,-0.165
15,AGCATAGG,-0.0842
16,ACACTAGA,0.00688
17,ATAGTCGA,-0.258
18,CGGATATC,0.193
19,AGTCGCTC,-0.148
20,ACTTCTGG,-0.108
21,ATCTGAAC,-0.223
22,CAGCATTC,-0.231
23,CATGACAC,-0.0362
24,CGATGCTA,0.095
25,CCCTAAGC,-0.106

row,Sequence,PBM E-score
1,CAGGGTGA,-0.204
2,CGTGCGCA,-0.0891
3,CAAGTCTG,-0.278
4,CCAACATA,-0.0617
5,AACGGATG,0.0921
6,CGTCTACA,-0.00368
7,CTCTCATA,-0.183
8,TGGCCGAA,0.0346
9,GTTCGGTA,0.206
10,ACTTTGTG,-0.141
11,GTTACATA,0.109
12,GCCTGCAC,-0.196
13,ACGCGGGA,0.0654
14,ACCAAATA,-0.128
15,CGCCACGA,0.0762
16,CTCCATTA,0.106
17,AAGGTGAT,0.117
18,CGTGCCAG,-0.231
19,AGGCAGCA,-0.105
20,ACCACAAA,0.0622
21,CCTTAGAC,0.0245
22,AATATAAT,-0.0847
23,CCGACGAC,0.312
24,ATCGTCCC,0.134
25,GTTGCCGA,0.221

row,Sequence,PBM E-score
1,AAGCGTCG,0.0529
2,GACCGAGA,0.203
3,CCCTCCAG,-0.06
4,AACCTCGC,-0.0263
5,CCTACGCA,-0.0806
6,TAACTTGA,-0.222
7,GCCATCAA,-0.231
8,CGTCTTCC,0.0107
9,AGCCTACT,-0.154
10,GACGTGCA,-0.196
11,CCCTACCC,-0.238
12,AATATTCG,-0.0349
13,AGGCCTCG,-0.16
14,AGATGACT,-0.138
15,GCAAACGC,-0.04
16,GAATTCGC,-0.0352
17,ATGCTCCA,-0.175
18,CGACGCCG,0.331
19,AAAAGAGG,-0.365
20,CAATCTCG,-0.175
21,GACGTATC,-0.0386
22,AAGGACGA,-0.334
23,AGGTATAC,-0.0409
24,ACCGACAC,0.361
25,ACCGGGCC,0.306

row,Sequence,PBM E-score
1,GCTTTGAC,0.0766
2,TAGTAGGA,-0.0819
3,TCCAACAA,-0.129
4,ACTAACAA,-0.0751
5,CTGGGGAA,-0.131
6,AGAACCTC,-0.0298
7,TAATTGTA,-0.148
8,CCGTAGCG,0.118
9,ATCATCAC,-0.193
10,ACACCGTA,0.346
11,ACTTCGCA,-0.217
12,CAGGTAGC,-0.176
13,CCTCATCC,-0.0928
14,TCAAGTGA,-0.298
15,CTACGGGC,0.246
16,CAATGCGC,-0.156
17,TGGGAAAA,-0.208
18,TCTCAGAA,-0.297
19,AATATTGA,-0.098
20,AAGCATTA,-0.125
21,CTGCACTA,-0.0814
22,AGGCATAA,-0.0575
23,CAATATAG,-0.185
24,CAGAAAGC,-0.165
25,GGTTTAAA,0.173

row,Sequence,PBM E-score
1,ACGTCGAA,-0.193
2,AAGTCCGT,0.454
3,GTGCACAA,-0.179
4,AGTACCGC,0.435
5,ATGGTCGG,0.33
6,ATTGTCTG,-0.17
7,CCGACCAC,0.298
8,AAATTACT,-0.148
9,CTGAATTA,-0.151
10,CTGCTAGC,-0.0619
11,AGCGCAAT,-0.212
12,AGATCTTG,-0.216
13,AACTCTGA,-0.156
14,ACTAGGAC,-0.082
15,GAAAGTGA,-0.238
16,AACCAGAA,-0.137
17,CGATACGA,-0.06
18,ACTTTTAT,0.0791
19,ATCATTTG,-0.216
20,GGGTAATA,0.143
21,TGGGTACA,-0.137
22,TAGCGTGA,-0.222
23,AATAAGAT,-0.0589
24,CGGCTCGC,-0.0672
25,CATTGAAG,-0.242

row,Sequence,PBM E-score
1,TTAGCGAA,-0.057
2,CAGCAAAC,-0.18
3,GATATGTA,-0.0956
4,CCCTACTA,0.0818
5,CTTACTGA,-0.164
6,CGTTATGC,0.0268
7,ACTTTGTA,-0.207
8,CGGCCTAC,0.00503
9,ATCTACAC,-0.164
10,CCCGATAG,0.248
11,CAATTCCA,-0.216
12,CCCCTACC,-0.0642
13,ACAAAAAG,-0.0544
14,ATGCTGAC,-0.217
15,ACAAGCAT,-0.155
16,GAAGTAGA,-0.158
17,AGCCACAG,-0.219
18,TAAACGGA,0.161
19,TCACTGCA,-0.228
20,CGATGCTC,0.102
21,GCAATAGC,0.0802
22,ATCAGTAA,-0.13
